The source of these data is paper PMC6664820, “Novel natural and synthetic inhibitors of solute carriers SGLT1 and SGLT2” (Pharmacology Research & Perspectives, 2019).

In all, about 1,900 compounds went through this assay and about 40 (2%) showed an effect of 50% or more. Some of the results follow. Residues, ends and D or L forms follow the SMILES beside them.

Sequence of human SGLT1 (hSGLT1) (P13866 whole entry, looked up): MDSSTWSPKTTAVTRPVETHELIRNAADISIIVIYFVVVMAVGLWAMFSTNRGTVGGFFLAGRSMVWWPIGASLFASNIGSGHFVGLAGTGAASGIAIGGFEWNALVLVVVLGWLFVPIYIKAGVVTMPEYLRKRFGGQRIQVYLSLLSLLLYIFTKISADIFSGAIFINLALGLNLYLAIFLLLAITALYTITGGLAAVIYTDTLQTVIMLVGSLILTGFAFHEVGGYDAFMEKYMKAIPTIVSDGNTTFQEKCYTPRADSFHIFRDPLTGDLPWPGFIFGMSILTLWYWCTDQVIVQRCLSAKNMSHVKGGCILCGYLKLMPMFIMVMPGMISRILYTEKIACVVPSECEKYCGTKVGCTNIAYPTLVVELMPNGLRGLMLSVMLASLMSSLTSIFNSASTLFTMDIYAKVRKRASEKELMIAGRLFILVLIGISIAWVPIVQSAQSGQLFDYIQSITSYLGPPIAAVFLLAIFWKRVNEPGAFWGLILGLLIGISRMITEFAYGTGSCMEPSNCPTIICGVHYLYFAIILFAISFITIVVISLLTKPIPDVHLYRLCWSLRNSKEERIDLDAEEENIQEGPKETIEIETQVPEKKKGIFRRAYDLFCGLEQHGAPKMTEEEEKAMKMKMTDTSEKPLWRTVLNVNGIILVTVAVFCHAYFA

The test concerns the target human SGLT1 (hSGLT1) (human, UniProt P13866). Description: primary screen, percent of control activity; higher = less effect of the substance. Further details: single well. Conditions: 50 µM. The procedure, abridged:
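Single-point screen at 50 µmol/L in CHO-hSGLT1 cells, with 160 µmol/L 1-NBD-glucose in glucose-free DMEM for 90 min at 37°C. Fluorescence from isopropanol extracts was calibrated, and CHO wild-type uptake was subtracted. Data are percent of uptake without compound.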
Consider `COC(=O)C1=C(C)NC(C)=C(C(=O)OCCN(C)Cc2ccccc2)C1c1cccc([N+](=O)[O-])c1.Cl` (stereo not shown), for which the “NORMALIZED SGLT1 ACTIVITY (%)” value is 93%.
Turning to `C=C1C(=O)OC2CC1C(OC(C)=O)C/C(C)=C/CC/C(C)=C/CC[C@]2(C)O` (stereo partly shown), the “NORMALIZED SGLT1 ACTIVITY (%)” value came to 107%.
On to `CN(C)CCOC(=O)COc1ccc(Cl)cc1.Cl`, for which the “NORMALIZED SGLT1 ACTIVITY (%)” value came out at 124%.
In the case of `CC(=O)O[C@@H]1CC(=O)[C@@]2(C)C(CC(=O)[C@]3(C)C2CC[C@@]2(C)[C@H](c4ccoc4)OC(=O)C4OC423)C1(C)C` (stereo partly shown) it was 92%.
`CC[C@@]1(O)C[C@H](O[C@H]2C[C@H](N(C)C)[C@H](O)[C@H](C)O2)c2c(cc3c(c2O)C(=O)c2c(O)cccc2C3=O)[C@H]1C(=O)OC.Cl`: the “NORMALIZED SGLT1 ACTIVITY (%)” value is reported as 280%.
For `CC(=O)Nc1c(I)cc(I)c(C(=O)O)c1I`, the “NORMALIZED SGLT1 ACTIVITY (%)” value is listed as 94%.
With `COc1cc(OC)c2c(c1)O[C@H](c1ccc(OC)c(OC)c1)[C@@H](O)C2`, the “NORMALIZED SGLT1 ACTIVITY (%)” value was found to be 169%.
As to `COc1cc(-c2coc3cc(OCc4ccccc4)c(OC)c(O)c3c2=O)cc(OCc2ccccc2)c1OC`, the “NORMALIZED SGLT1 ACTIVITY (%)” value was 113%.
Turning to `c1coc(CNc2ncnc3[nH]cnc23)c1`, the “NORMALIZED SGLT1 ACTIVITY (%)” value is listed as 171%.
As to `OC1CC2CCCC(C1)N2Cc1ccccc1` (stereo not shown), the “NORMALIZED SGLT1 ACTIVITY (%)” value is 93%.
In the case of `CCCCCCCCCCCCCCCC(=O)OC/C=C(C)/C=C/C=C(C)/C=C/C1=C(C)CCCC1(C)C` it was 105%; in that of `CCN(CC)CCOC(=O)c1ccc(N)cc1.Cl`, 90%.
With `O=C(/C=C/c1ccc(O)c(O)c1)O[C@H](Cc1ccc(O)c(O)c1)C(=O)O`, the “NORMALIZED SGLT1 ACTIVITY (%)” value is 101%.
Consider `COC(=O)[C@H](Cc1ccccc1)NC(=O)[C@@H](N)CC(=O)O` (H-Asp-Phe-OMe), for which the “NORMALIZED SGLT1 ACTIVITY (%)” value came to 100%.
For `C[C@@H]1CCC[C@H](C)N1NC(=O)c1ccc(Cl)c(S(N)(=O)=O)c1`, the “NORMALIZED SGLT1 ACTIVITY (%)” value is 113%.
Consider `O=C(Nc1ccccc1)Nc1ccccc1`, for which the “NORMALIZED SGLT1 ACTIVITY (%)” value was 132%.
As for `Nc1c2ccccc2nc2ccccc12`, the figure is 199%; as for `COC(=O)C(O)c1ccccc1` (stereo not shown), 173%.
On to `CC(C)C[C@H]1C(=O)N2CCC[C@H]2[C@]2(O)O[C@](NC(=O)[C@@H]3C=C4c5cccc6[nH]c(Br)c(c56)C[C@H]4N(C)C3)(C(C)C)C(=O)N12.CS(=O)(=O)O`, for which the “NORMALIZED SGLT1 ACTIVITY (%)” value came out at 101%.
With `CC(C)C1COc2cc3oc(=O)ccc3cc2O1` (stereo not shown), the “NORMALIZED SGLT1 ACTIVITY (%)” value amounted to 153%.
As for `CNc1ccccc1C(=O)O`, the figure is 102%; as for `C/C=C(\C)C(=O)OC1[C@@H]2C=C3C4CC(=O)O[C@@H](c5ccoc5)[C@]4(C)CCC3[C@@](C)(C2=O)[C@@H](C(O)C(=O)OC)C1(C)C` (stereo partly shown), 62%; as for `Nc1nc2c(ncn2COCCO)c(=O)[nH]1`, 89%.
As for `CN[C@@H]1[C@@H](O[C@H]2O[C@H](CO)[C@@H](N)[C@H](O)[C@H]2O)O[C@H]2C[C@@H](N)[C@H](O[C@H]3[C@H](O)[C@@H](O)[C@H](N)C[C@@H]3N)O[C@@H]2[C@@H]1O`, the “NORMALIZED SGLT1 ACTIVITY (%)” value is given as 105%.
In the case of `COc1cc(N)c(Cl)cc1C(=O)NC1CCN(Cc2ccccc2)CC1.O=C(O)/C=C\C(=O)O` it was 123%.
Consider `O=C(/C=C(\O)c1ccccc1)c1ccccc1O`, for which the “NORMALIZED SGLT1 ACTIVITY (%)” value is 207%.
As to `CC(=O)O[C@@H]1CC2C(C)(C)[C@H](O)C[C@H](O)[C@]2(C)C2CC[C@@]3(C)C(=CC(=O)O[C@H]3c3ccoc3)[C@@]21C` (stereo partly shown), the “NORMALIZED SGLT1 ACTIVITY (%)” value is recorded as 228%.
In the case of `Oc1ccc2c(c1)OCC1c3cc4c(cc3OC21)OCO4` (stereo not shown), the “NORMALIZED SGLT1 ACTIVITY (%)” value came to 181%.
As for `CC(=O)/C=C\[C@@H]1[C@@]2(C)CCCC(C)(C)C2CC[C@@]1(C)O` (stereo partly shown), the figure is 89%; as for `CC(=O)O[C@@H]1CC2C(C)(C)[C@H](O)C=C[C@]2(C)C2CC[C@]3(C)C(=CC(=O)O[C@H]3c3ccoc3)[C@@]21C` (stereo partly shown), 200%; as for `NC[C@H](O)c1ccc(O)c(O)c1`, 92%.
Consider `CC1(C)C(=O)C=C[C@@]2(C)C1C[C@@H](O)[C@]1(C)C2CC[C@@]2(C)[C@H](c3ccoc3)OC(=O)[C@H]3O[C@]321` (stereo partly shown), for which the “NORMALIZED SGLT1 ACTIVITY (%)” value was found to be 103%.
On to `CC(=O)OCC(OC(C)=O)C(OC(C)=O)C(OC(C)=O)C(OC(C)=O)C(COC(C)=O)OC(C)=O` (stereo not shown), for which the “NORMALIZED SGLT1 ACTIVITY (%)” value was 108%.
Take `CCC(N)C(O)c1ccc(O)c(O)c1.Cl` (stereo not shown): the “NORMALIZED SGLT1 ACTIVITY (%)” value came to 111%.
In the case of `CCOC(=O)c1c(C)cc(OC)cc1O`, the “NORMALIZED SGLT1 ACTIVITY (%)” value amounted to 224%.
Turning to `C[N+](C)(C)CCOC(N)=O.[Cl-]`, the “NORMALIZED SGLT1 ACTIVITY (%)” value was 110%.
`CC1CCC(NC(=O)N(CCCl)N=O)CC1` (stereo not shown): the “NORMALIZED SGLT1 ACTIVITY (%)” value is reported as 74%.
For `CC(C)=CCOc1cc2oc(=O)ccc2cc1O`, the “NORMALIZED SGLT1 ACTIVITY (%)” value is listed as 287%.
`CC(=O)Nc1ccc(OC(=O)c2ccccc2O)cc1`: the “NORMALIZED SGLT1 ACTIVITY (%)” value is recorded as 160%.
With `CC(C)c1nc(N(C)S(C)(=O)=O)nc(-c2ccc(F)cc2)c1/C=C/[C@@H](O)C[C@@H](O)CC(=O)[O-].[Ca+2]`, the “NORMALIZED SGLT1 ACTIVITY (%)” value is 93%.
As for `COc1c(Cl)ccc(Cl)c1C(=O)O`, the “NORMALIZED SGLT1 ACTIVITY (%)” value amounted to 146%.
`CC1Cc2ccccc2N1NC(=O)c1ccc(Cl)c(S(N)(=O)=O)c1` (stereo not shown): the “NORMALIZED SGLT1 ACTIVITY (%)” value was determined as 122%.
As for `COC(=O)[C@]1(C)CC[C@]2(C)CC[C@]3(C)C4=CCc5c(cc(O)c(O)c5C)[C@]4(C)CC[C@@]3(C)C2C1` (stereo partly shown), the figure is 146%; as for `COc1c(CC=C(C)C)c2c(c3oc(=O)c(-c4ccc(O)cc4)c(O)c13)C=CC(C)(C)O2`, 75%.
`CN1C(CC(=O)c2ccccc2)CCCC1CC(O)c1ccccc1.Cl` (stereo not shown): the “NORMALIZED SGLT1 ACTIVITY (%)” value came to 58%.
As for `COc1ccc2oc(-c3ccccc3)c(OC)c(=O)c2c1`, the figure is 151%; as for `COC1=C[C@@H]2[C@@H]3Cc4ccc(OC)c(O)c4[C@]2(CCN3C)CC1=O`, 98%.
As for `CCOC(=O)C1C(C=C(C)C)C1(C)C` (stereo not shown), the “NORMALIZED SGLT1 ACTIVITY (%)” value was 99%.
For `NCCC(=O)N[C@@H](Cc1c[nH]cn1)C(=O)O`, the “NORMALIZED SGLT1 ACTIVITY (%)” value is 97%.
`Cc1cc(C)nc(NS(=O)(=O)c2ccc(N)cc2)n1`: the “NORMALIZED SGLT1 ACTIVITY (%)” value is reported as 125%.
For `COc1cc(NS(=O)(=O)c2ccc(N)cc2)ncn1`, the “NORMALIZED SGLT1 ACTIVITY (%)” value is recorded as 121%.
On to `O=c1c(O)cccc2c([C@H]3Oc4cc(O)cc(O)c4C[C@@H]3O)cc(O)c(O)c12`, for which the “NORMALIZED SGLT1 ACTIVITY (%)” value was determined as 110%.
As for `O=c1ccc2ccc(O)c(O)c2o1`, the “NORMALIZED SGLT1 ACTIVITY (%)” value amounted to 99%.
In the case of `O=c1ccc2ccccc2o1`, the “NORMALIZED SGLT1 ACTIVITY (%)” value is 104%.
As for `CC(=O)O[C@H]1C[C@@H](O)C(C)(C)C2C[C@@H](OC(C)=O)[C@]3(C)C(CC[C@@]4(C)[C@H](c5ccoc5)OC(=O)C5OC543)[C@]21C` (stereo partly shown), the figure is 143%; as for `COc1ccc2c(c1)OCc1c-2oc2cc(OC)ccc12`, 353%.
`CCCOc1ccccc1-c1nc2[nH]nnc2c(=O)[nH]1`: the “NORMALIZED SGLT1 ACTIVITY (%)” value is given as 117%.
`CCOP(=S)(OCC)SCSCC`: the “NORMALIZED SGLT1 ACTIVITY (%)” value is 47%.
